Laboratory results published in PubChem BioAssay AID200 (DTP/NCI, 2004).
Inconclusive results and toxic doses are left out. Not every entry of the source has a single result; some have several. The other results are left out here. The source may hold further records. Results that share an entry do not match, cause unknown; they may come from other doses, times, organisms or constructs than stated.

Tested on: B6C3F1 mice, B16 melanoma ip, median survival T/C
Experiment: NCI In Vivo Anticancer Drug Screen. Data for tumor model B16 Melanoma (intraperitoneal) in B6C3F1 mice
Conditions: endpoint: median survival time, higher = longer survival
Protocol: The antitumor activity of compounds was measured in mice bearing transplantable tumors. Survival or tumor size were measured and the results are expressed as the measurement made in the treated group (T) divided by the measurement made in the vehicle treated control group (C). The tumor model used in this assay is B16 Melanoma (intraperitoneal) in B6C3F1 mice

[1] = dose: 50.0 mg/kg/injection, schedule: Q01DX009 (ip), vehicle: saline with Tween-80

COC1CC2C=C(C)/C=C/C=C/C(=O)NC(c3ccccc3)C/C=C/CCC(O)CC(=O)C2=C1O (configuration not stated)
T/C (dose: 12.5 mg/kg/injection, schedule: Q01DX009 (ip), vehicle: Klucel (hydroxypropylcellulose) (HPC)): 119 % of control and 181 % of control

C=Cc1cc(OC)c2c(c1)c(=O)oc1c2cc(OC)c2c(O)ccc(C3OC(C)C(O)C(C)(O)C3O)c21 (configuration not stated)
T/C (dose: 10.0 mg/kg/injection, schedule: Q01DX009 (ip), vehicle: DMSO): 120 % of control and 152 % of control

CC(C)NC(=O)OCc1c(COC(=O)NC(C)C)c(-c2ccc(Cl)c(Cl)c2)n2c1CC(OC(=O)CN(C)C)C2 (configuration not stated)
T/C (dose: 5.0 mg/kg/injection, schedule: Q01DX009 (ip), vehicle: distilled water + Tween-80): 106 % of control and 155 % of control

O=C(Nc1ccc([N+](=O)[O-])cc1)Nc1nccs1
T/C (dose: 50.0 mg/kg/injection, schedule: Q01DX009 (ip), vehicle: distilled water + Tween-80): 118 % of control and 170 % of control

NC(=S)N/N=C\c1ncccc1OCc1cccc(N)c1
T/C [1]: 107 % of control, 124 % of control, 169 % of control

c1ccc(OCC2CO2)c(OCC2CO2)c1 (configuration not stated)
T/C [1]: 121 % of control and 162 % of control

O=NN(CCCl)C(=O)NCCCl
T/C (dose: 32.0 mg/kg/injection, schedule: Q01DX001 (ip), vehicle: saline): 117 % of control and 154 % of control
